According to PubChem BioAssay AID504339 (National Center for Advancing Translational Sciences (NCATS), 2011):
Screen size: about 390,000 compounds; about 17,000 (4.4%) were called active. This list was built around the results that the source calls inconclusive (neither active nor inactive); the mix of calls is not that of the screen. The call rests on the fitted dose curve; in most records, active means well fitted inhibition curve with a large enough effect; inconclusive means small, poorly fitted or top-dose-only effect; inactive means no such curve, though single readings can be large or run the other way. Potencies beside an inconclusive call are fits to weak or partial responses and may not hold up.

biological target: Lysine-specific demethylase 4A (Homo sapiens) (UniProt O75164); experiment: qHTS Assay for Inhibitors of JMJD2A-Tudor Domain; conditions: AlphaScreen JMJD2A-Tudor / H3K4me3 peptide binding; activity change, negative = inhibition: at 114 µM (top of the series); further: nearly all actives have a fitted effect of over 50% in size
Sequence of UniProt O75164 (O75164 whole entry, looked up, the tested form may be a part): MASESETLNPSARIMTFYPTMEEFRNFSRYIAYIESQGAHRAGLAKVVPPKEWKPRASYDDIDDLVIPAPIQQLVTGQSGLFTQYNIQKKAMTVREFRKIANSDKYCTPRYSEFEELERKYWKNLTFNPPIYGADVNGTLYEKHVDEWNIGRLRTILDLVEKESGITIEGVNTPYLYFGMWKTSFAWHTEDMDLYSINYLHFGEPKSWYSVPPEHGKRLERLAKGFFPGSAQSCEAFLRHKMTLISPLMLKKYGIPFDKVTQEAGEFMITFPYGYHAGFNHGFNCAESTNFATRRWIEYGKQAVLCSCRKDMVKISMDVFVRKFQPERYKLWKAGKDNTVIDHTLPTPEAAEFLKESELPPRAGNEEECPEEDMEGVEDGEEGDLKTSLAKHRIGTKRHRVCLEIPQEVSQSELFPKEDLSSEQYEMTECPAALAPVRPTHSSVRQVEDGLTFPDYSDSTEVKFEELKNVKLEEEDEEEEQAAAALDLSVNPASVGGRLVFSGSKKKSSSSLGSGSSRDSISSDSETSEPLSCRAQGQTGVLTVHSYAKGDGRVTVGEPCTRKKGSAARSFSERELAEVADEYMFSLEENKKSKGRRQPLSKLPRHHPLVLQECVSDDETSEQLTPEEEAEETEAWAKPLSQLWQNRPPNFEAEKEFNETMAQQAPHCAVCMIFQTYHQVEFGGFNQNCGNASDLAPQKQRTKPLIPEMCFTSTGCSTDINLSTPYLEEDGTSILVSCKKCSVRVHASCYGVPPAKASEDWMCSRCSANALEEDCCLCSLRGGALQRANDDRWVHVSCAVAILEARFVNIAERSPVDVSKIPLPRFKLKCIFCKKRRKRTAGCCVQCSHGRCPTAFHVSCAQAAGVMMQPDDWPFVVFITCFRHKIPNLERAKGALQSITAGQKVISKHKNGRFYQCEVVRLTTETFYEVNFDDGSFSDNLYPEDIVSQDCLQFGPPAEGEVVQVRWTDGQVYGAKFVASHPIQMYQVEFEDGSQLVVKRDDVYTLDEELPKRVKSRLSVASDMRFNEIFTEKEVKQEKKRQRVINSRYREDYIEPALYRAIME
On the % scale 0 is the no-effect control and ±100 the full control effect; potency means the concentration at half of the fitted maximal effect; tags describe the fitted curve by direction and shape.

| SMILES | Potency | activity change, negative = inhibition |
| --- | --- | --- |
| Cc1n[nH]c(=O)c2c(NC(=O)CSc3nnc(-c4ccncc4)n3C)oc(C)c12 | inconclusive: 31.6 µM [inhibitor, partial curve] |  |
| O=C(O)c1ccc(Oc2cccc([N+](=O)[O-])c2)cc1C(=O)O | inconclusive: 44.7 µM [inhibitor, partial curve] |  |
| COc1c(C)cc(S(=O)(=O)NCCc2c(C)[nH]c3ccccc23)c(C)c1C | inconclusive: 44.7 µM [inhibitor, partial curve] |  |
| COCCCNC(=S)NNC(=S)NCCCOC | active: 12.6 µM |  |
| COCCn1c(C)cc(C(=O)CSc2cc(C)c3ccccc3n2)c1C | inconclusive: 15.8 µM [inhibitor, full curve, poor fit] |  |
| CN(C)CCCN1C(=O)C(O)=C(C(=O)c2cc3ccccc3o2)C1c1ccccn1 (configuration not stated) | inconclusive: 35.5 µM [inhibitor, single point] |  |
| Cc1ccc(-n2ncc(C(=O)N3CCN(c4cccc(C)c4)C(C)C3)c2C2CCN(C(=O)OC(C)(C)C)CC2)cc1 (configuration not stated) | inconclusive: 39.8 µM [inhibitor, partial curve] |  |
| CCN(CC)CCNc1ccc(C)c2sc3ccc(O)cc3c(=O)c12 | active: 22.4 µM |  |
| O=C(O)CCn1nnc(-c2cccs2)n1 |  | inactive: -13.4% |
| CCN1CCSc2ccc(C(=O)NC(C)c3ccccc3)cc21 (configuration not stated) | inconclusive: 8.91 µM [inhibitor, full curve, poor fit] |  |
| Cc1c2cnn(CC(=O)N3CCN(c4ccc(F)cc4)CC3)c(=O)c2c(C)n1Cc1ccc(F)cc1 | inconclusive: 39.8 µM [inhibitor, full curve, poor fit] |  |
| O=C(CSc1nnc(-c2cccnc2)o1)Nc1nccs1 | inconclusive: 100 µM [inhibitor, single point] |  |
| CC(C)Oc1c(Br)cc(Br)cc1/C=N/NC(N)=S | inconclusive: 39.8 µM [inhibitor, partial curve] |  |
| CN(C)S(=O)(=O)N(CC(=O)N(Cc1ccccc1)Cc1ccccc1)c1ccccc1 | inconclusive: 70.8 µM [inhibitor, partial curve] |  |
| CC1=C(C(=O)Nc2ccc(C)cc2C)C(c2ccccc2[N+](=O)[O-])n2ncc(C(=O)Nc3ccccc3)c2N1 (configuration not stated) | inconclusive: 25.1 µM [inhibitor, full curve] |  |
| CCC1CCCCN1CCCCOc1cccc(Cl)c1 (configuration not stated) | active: 17.8 µM |  |
| Fc1ccc(-c2nc(Nc3ccc(F)c(Cl)c3)nc3c2COc2ccccc2-3)cc1 | inconclusive: 22.4 µM [inhibitor, full curve] |  |
| NC(=S)NN=C1C=CCCC1 | inconclusive: 3.98 µM [inhibitor, full curve, poor fit] |  |
| Cc1cc(N=Cc2c(O)ccc3ccccc23)no1 | active: 28.2 µM |  |
| Cn1c(=O)c2c(nc(CN3CCN(C(=O)c4ccco4)CC3)n2Cc2ccccc2)n(C)c1=O |  | inactive: -13.1% |
| Cn1c(=O)[nH]c(=O)c2c1nc(SCCN1CCCCC1)n2CCCc1ccccc1 | inconclusive: 79.4 µM [inhibitor, partial curve] |  |
| Cc1ncc(CCl)c2c1OC(C)(C)OC2 | inconclusive: 79.4 µM [inhibitor, single point] |  |
| Cc1ccc(C(=O)N2CCc3cc(CNS(=O)(=O)c4ccc(Cl)s4)ccc32)cc1 |  | inactive: -2.27% |
| Cc1ccc(C)c(N2CCN(C(=O)C3CCN(c4nc(-c5ccc(C(C)C)cc5)no4)CC3)CC2)c1 |  | inactive: -14.9% |

| SMILES | Potency | activity change, negative = inhibition |
| --- | --- | --- |
| Cn1cc(S(=O)(=O)c2cccc(Cl)c2)c(=O)c2cc(F)c(N3CCCCCC3)cc21 |  | inactive: -10.2% |
| CN1/C(=C\C=N\NC(=O)c2ccc(O)cc2)C(C)(C)c2ccccc21 | inconclusive: 44.7 µM [inhibitor, partial curve] |  |
| CCCCN1C(=S)NC[C@@H]1Cc1cccc2ccccc12 | inconclusive: 89.1 µM [inhibitor, partial curve, poor fit] |  |
| CCS(=O)(=O)N1CCc2cc(C(=O)NCc3ccc(OC)cc3)ccc21 | inconclusive: 50.1 µM [inhibitor, partial curve] |  |
| CCC(=O)N1c2ccccc2-c2nnc(SC)nc2OC1c1ccc(N(C)C)cc1 (configuration not stated) | inconclusive: 70.8 µM [inhibitor, single point] |  |
| O=C(NCCc1ccccc1)C1CC(=O)N(c2ccc3c(c2)OCCO3)C1 (configuration not stated) |  | inactive: -11% |
| CC1=C(CC(=O)c2ccc(Cl)cc2)C(=O)c2ccccc2C1=O | active: 31.6 µM |  |
| COc1ccc(CNC(=O)CSc2nnnn2-c2ccc(O)cc2)cc1 | inconclusive: 89.1 µM [inhibitor, single point] |  |
| CC(C(=O)Nc1ccccc1C(=O)N1CCOCC1)N(c1ccc(Cl)cc1)S(C)(=O)=O (configuration not stated) | active: 11.2 µM |  |
| C[C@H](CO)N1C[C@H](C)[C@H](CN(C)C)Oc2ccc(NS(=O)(=O)c3ccc(F)cc3)cc2CC1=O |  | inactive: -7.59% |
| O=C(Nc1nncs1)c1cccc(S(=O)(=O)N2CCc3ccccc32)c1 | inconclusive: 3.98 µM [inhibitor, single point] |  |
| N#C/C(N=Nc1ccccc1O)=N\Nc1ccccc1O | active: 22.4 µM |  |
| CCN(CC)c1ccc(NC(=O)C(C)C)cc1 | inconclusive: 44.7 µM [inhibitor, partial curve] |  |
| O=C(COC(=O)c1ccc(S(=O)(=O)NCc2ccco2)cc1)NC1CCCCCC1 | inconclusive: 14.1 µM [inhibitor, full curve, poor fit] |  |
| Cc1ccc(S(=O)(=O)c2nc(-c3ccccc3F)oc2N2CCCCC2)cc1 |  | inactive: -22.5% |
| CC1(C)OC2C(CO)OC(n3cnc4c(=S)nc[nH]c43)C2O1 (configuration not stated) | inconclusive: 20 µM [inhibitor, single point] |  |
| O=C(O)C1CC(=O)n2c(nc3ccccc32)S1 (configuration not stated) | inconclusive: 28.2 µM [inhibitor, single point] |  |
| Cc1ccc(NC2=C(c3ccc(C(F)(F)F)cc3)C(=O)c3ccccc32)cc1C | active: 56.2 µM |  |
| Cc1cc(=O)[nH]c(CN2CCOCC2)n1 | inconclusive: 63.1 µM [inhibitor, partial curve, poor fit] |  |
| O=C(Nc1cc2c(cc1Br)OCCCO2)c1cccnc1 |  | inactive: -6.12% |
| N#CCc1ccc(NC(=O)/C=C/c2ccc([N+](=O)[O-])o2)cc1 | inconclusive: 44.7 µM [inhibitor, partial curve] |  |
| COc1ccc(Cl)cc1Nc1sc(C(=O)c2ccccc2)c(N)c1C(=O)Nc1ccccc1 | inconclusive: 50.1 µM [inhibitor, partial curve] |  |
| CCc1c(C)sc2c1CCN(Cc1cccc(F)c1)C2c1ccccc1 (configuration not stated) | inconclusive: 56.2 µM [inhibitor, partial curve] |  |
| CN(C(=O)COC(=O)CSc1ccc([N+](=O)[O-])cc1)c1ccccc1 | active: 79.4 µM |  |

| SMILES | Potency | activity change, negative = inhibition |
| --- | --- | --- |
| CCN(Cc1ccccc1)S(=O)(=O)c1ccc(C(=O)N(CCCN(C)C)c2nc3cc4c(cc3s2)OCCO4)cc1 | active: 44.7 µM |  |
| Cn1cnnc1SCc1ccc(C(=O)N=Nc2c(O)n(Cc3ccc(Cl)cc3)c3ccccc23)cc1 | inconclusive: 39.8 µM [inhibitor, partial curve] |  |
| Cc1cc(C)nc(Nc2n[nH]c(-c3ccccc3N)n2)n1 | active: 2.24 µM |  |
| CCc1ccc(N=C2NC(=O)CC(C(=O)Nc3ccc(OC)cc3)S2)cc1 (configuration not stated) | inconclusive: 79.4 µM [inhibitor, partial curve] |  |
| NC(=S)N/N=C/c1ccc(C23CC4CC(CC(C4)C2)C3)cc1 | inconclusive: 20 µM [inhibitor, single point] |  |
| CCCCCCCCCCCCCCCC[N+](C)(C)CCN(Cc1ccc(OC)cc1)c1ncccn1 | inconclusive: 79.4 µM [inhibitor, partial curve] |  |
| CN(Cc1ccc(F)cc1)C(=O)c1sccc1-c1ccccc1 |  | inactive: 27.2% |
| Cc1cccc(-c2nc(S(=O)(=O)c3ccc(F)cc3)c(N3CCN(c4ccccc4)CC3)o2)c1 | inconclusive: 3.16 µM [inhibitor, full curve] |  |
| CCCCN1C(=O)C(O)(CC(=O)c2ccc(CC)cc2)c2cc(Br)ccc21 (configuration not stated) |  | inactive: -11.8% |
| COc1ccc(C2=CCN3CCCCC3C2)c(-c2ccc(OC)c(OC)c2)c1 (configuration not stated) | inconclusive: 79.4 µM [inhibitor, partial curve] |  |
| O=C(Nc1nc(-c2ccc(Oc3ccccc3)cc2)cs1)C1=COCCO1 |  | inactive: -32.1% |
| CC(C)(C)c1cc(CSC(=S)NC2CCS(=O)(=O)C2)c(Br)c(C(C)(C)C)c1 (configuration not stated) |  | inactive: -21% |
| Cc1cc(NCc2ccncc2)ccc1Br | active: 17.8 µM |  |
| O=P(O)(c1ccccc1)c1ccccc1O | inconclusive: 89.1 µM [inhibitor, single point] |  |
| O=C(Cc1cccs1)Nc1nnc(Cc2ccccc2)s1 | active: 50.1 µM |  |
| c1ccc(-c2cc3ccccc3[nH]2)cc1 |  | inactive: -9.35% |
| Cc1ccc(-n2c(O)cnc2Nc2nc(C)cc(C)n2)cc1 | inconclusive: 89.1 µM [inhibitor, single point] |  |
| O=[N+]([O-])c1ccc(-n2nnnc2-c2ccccc2)cc1 | inconclusive: 28.2 µM [inhibitor, single point] |  |
| COc1cc(/C=C(\CC(=O)O)c2nc3ccccc3s2)cc(OC)c1O | active: 15.8 µM |  |
| Nc1[nH]c(=O)nc(Nc2ccccc2)c1N=O | active: 35.5 µM |  |
| CCCCOc1ccc(CNC(=O)NS(=O)(=O)c2ccc(OCC(C)C)cc2)cc1 | inconclusive: 89.1 µM [inhibitor, single point] |  |
| O=C(O)c1ccc(/C=C2\SC(=S)N(Nc3ccccc3)C2=O)cc1 |  | inactive: -23.2% |
| COc1ccc(CNCCc2ccc([N+](=O)[O-])cc2)c(OC)c1OC | active: 79.4 µM |  |
| Cc1ccc2c(C)c(C(=O)N3CCN(Cc4ccccn4)CC3)oc2c1C | inconclusive: 56.2 µM [inhibitor, partial curve] |  |
